Test results taken from paper PMC4599898.
No constants are given. Whether binding was seen depends on the method and setting. In cells and extracts the contact can be indirect.

Legend:
Assay in all cases: split reporter; split YFP BiFC in transiently transformed Arabidopsis protoplasts, 2 ug of each plasmid, incubated overnight; read by flow cytometry (at least three biological replicates, minimum 30,000 cells); each pair tested in both fusion conformations (SPN and SPC); positive where the normalized BiFC score lies above the threshold 0.01 in both conformations
[1] = molecular target: T1, bZIP63 (Arabidopsis thaliana) (UniProt B9DGI8)
T1 sequence: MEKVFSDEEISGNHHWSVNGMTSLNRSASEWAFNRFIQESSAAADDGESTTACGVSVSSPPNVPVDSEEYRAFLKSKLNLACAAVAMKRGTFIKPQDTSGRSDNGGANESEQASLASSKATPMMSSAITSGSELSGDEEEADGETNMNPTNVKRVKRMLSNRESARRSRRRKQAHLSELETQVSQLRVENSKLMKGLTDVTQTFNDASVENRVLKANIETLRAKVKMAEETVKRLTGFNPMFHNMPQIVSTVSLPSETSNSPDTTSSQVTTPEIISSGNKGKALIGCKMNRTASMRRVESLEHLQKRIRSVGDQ

[2] = molecular target: T2, GBF3 (Arabidopsis thaliana) (UniProt P42776)
T2 sequence: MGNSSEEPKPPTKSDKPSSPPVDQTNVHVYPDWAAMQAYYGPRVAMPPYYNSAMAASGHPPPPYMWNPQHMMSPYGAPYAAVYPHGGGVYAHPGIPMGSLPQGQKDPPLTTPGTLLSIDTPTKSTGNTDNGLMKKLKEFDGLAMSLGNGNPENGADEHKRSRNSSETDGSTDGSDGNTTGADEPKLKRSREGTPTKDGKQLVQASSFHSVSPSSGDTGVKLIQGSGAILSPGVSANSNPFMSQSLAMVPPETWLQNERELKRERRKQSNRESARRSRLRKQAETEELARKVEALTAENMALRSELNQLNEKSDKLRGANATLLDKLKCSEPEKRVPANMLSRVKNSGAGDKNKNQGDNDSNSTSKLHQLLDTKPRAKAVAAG

[3] = molecular target: bZIP9 (Arabidopsis thaliana) (UniProt Q9FUD3)
[4] = molecular target: T3, HyH (Arabidopsis thaliana) (UniProt Q8W191)
T3 sequence: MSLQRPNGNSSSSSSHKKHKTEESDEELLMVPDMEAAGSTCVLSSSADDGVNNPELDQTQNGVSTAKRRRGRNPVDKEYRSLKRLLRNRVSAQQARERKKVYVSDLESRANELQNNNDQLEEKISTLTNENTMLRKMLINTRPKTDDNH

[5] = molecular target: T4, bZIP68 (Arabidopsis thaliana) (UniProt Q84LG2)
T4 sequence: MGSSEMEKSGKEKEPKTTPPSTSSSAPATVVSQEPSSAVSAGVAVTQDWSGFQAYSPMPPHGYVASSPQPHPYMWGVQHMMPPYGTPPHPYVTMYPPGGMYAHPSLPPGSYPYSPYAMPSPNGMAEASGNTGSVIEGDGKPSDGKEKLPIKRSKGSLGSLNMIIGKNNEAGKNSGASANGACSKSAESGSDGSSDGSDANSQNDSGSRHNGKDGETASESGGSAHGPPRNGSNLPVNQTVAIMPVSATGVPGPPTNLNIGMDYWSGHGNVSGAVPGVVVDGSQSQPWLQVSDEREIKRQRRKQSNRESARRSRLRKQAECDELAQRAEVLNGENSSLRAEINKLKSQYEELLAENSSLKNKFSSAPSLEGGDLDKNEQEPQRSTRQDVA

binding [1]: no binding
binding [2]: no binding
binding [3]: no binding
binding [4]: no binding
binding [5]: no binding
B1: bZIP9 (protein, UniProt Q9FUD3 1-277)
chain: MDNHTAKDIGMKRSASELALQEYLTTSPLDPCFDLMNRDYTCELRDSLLWSEGLFPAGPFRDAQSSICENLSADSPVSANKPEVRGGVRRTTSGSSHVNSDDEDAETEAGQSEMTNDPNDLKRIRRMNSNRESAKRSRRRKQEYLVDLETQVDSLKGDNSTLYKQLIDATQQFRSAGTNNRVLKSDVETLRVKVKLAEDLVARGSLTSSLNQLLQTHLSPPSHSISSLHYTGNTSPAITVHSDQSLFPGMTLSGQNSSPGLGNVSSEAVSCVSDIWP
